We go through 32 molecules from the supplement of paper PMC11880418.

Structures are written as SMILES. Where a name gives a salt, the structure may show the parent alone. The list shows a part of the results. The data scatter; read single values as rough. Non-standard residues stand in square brackets, D forms with d. Residues, ends and D or L forms follow the SMILES beside them. *: point of attachment. Sta = CC(C)C[C@H](N)[C@@H](O)CC(=O)O; Isovaleryl = CC(C)CC(=O)*
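Further: High-content imaging of ALDEFLUOR-stained cells with Hoechst-labelled nuclei in 384-well plates, triplicate wells, scored as Z-score against 0.1% DMSO vehicle, negative meaning fewer ALDHbr cells.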

For one assay, the system named is PANC1. Nature of the assay: ALDHbr (CSC) cell proportion score relative to DMSO vehicle (ratio to DMSO); breast (SUM159) / gastric (MKN45) / pancreatic (PANC1) / colon cancer lines; ALDHbr cells have high ALDH activity and are rich in cancer stem cells (CSC); higher = more CSC (ALDHbr) cells remaining. The note with it: 10 µM; 72 h.
Take `C[C@H](O)C(=O)Nc1c(I)c(C(=O)NC(CO)CO)c(I)c(C(=O)NC(CO)CO)c1I` [Iopamidol]: the ALDHbr is 1.06.
As to `NNCCc1ccccc1` [Phenelzine sulfate], the ALDHbr is 1.1.
As for `COc1cc2nc(N(C)CCCNC(=O)C3CCCO3)nc(N)c2cc1OC` (configuration not stated) [Alfuzosin hydrochloride], the ALDHbr was determined as 0.907.
Same read-out and setting: the value for `C[C@]12CC[C@@H]3c4ccc(OS(=O)(=O)O)cc4CC[C@H]3[C@@H]1CCC2=O` [Estropipate] was 0.938; that for `CO[C@@]1(NC(=O)CSCC#N)C(=O)N2C(C(=O)O)=C(CSc3nnnn3C)CS[C@@H]21` [Cefmetazole sodium salt] was 0.848.
The same measure, in the same setting: the value for `CCS(=O)(=O)CCn1c([N+](=O)[O-])cnc1C` [Tinidazole] was 1.03; that for `CC(C)NCC(O)c1ccc2ccccc2c1` (configuration not stated) [Pronethalol hydrochloride] was 0.863; that for `CCc1c(C)[nH]c2c1C(=O)C(CN1CCOCC1)CC2` (configuration not stated) [Molindone hydrochloride] was 0.919.

Another assay deals with SUM159. Described as above. The conditions noted are these: 10 µM; 72 h.
As to `CN(C)[C@@H]1C(=O)C(C(=O)NCNCCCC[C@H](N)C(=O)O)=C(O)[C@@]2(O)C(=O)C3=C(O)c4c(O)cccc4[C@@](C)(O)[C@H]3C[C@@H]12` [Lymecycline], the ALDHbr was 0.845.
Consider `CC(C(=O)O)c1ccc(C(=O)c2ccccc2)s1` (configuration not stated) [Tiaprofenic acid], for which the ALDHbr was 0.9.
`CCN(CC)CCc1nc(-c2ccccc2)no1` [Oxalamine citrate salt]: the ALDHbr was found to be 0.491.
On the same count and under the same terms, the value for `Cc1cc(=O)oc2cc(O)ccc12` [Hymecromone] was 1.24; that for `NCCCCCC(=O)O` [Aminocaproic acid] was 0.876; that for `CC1=Nc2ccc(Cl)cc2S(=O)(=O)N1` [Diazoxide] was 0.982.
Take `CC(Oc1c(Cl)cccc1Cl)C1=NCCN1` (configuration not stated) [Lofexidine]: the ALDHbr turned out to be 1.57.
Same read-out and setting: then `CC(=O)OCC1=C(C(=O)O)N2C(=O)[C@@H](NC(=O)Cc3cccs3)[C@H]2SC1` [Cephalothin sodium salt], with 0.735; and `CC(C(=O)O)c1ccc2c(c1)[nH]c1ccc(Cl)cc12` (configuration not stated) [Carprofen], with 0.834.
On the same count and under the same terms, the value for `CC(C)NC[C@H](O)COc1cccc2ccccc12` [(S)-propranolol hydrochloride] was 1.33; that for `CC(C)CC(=O)N[C@H](C(=O)N[C@H](C(=O)N[C@@H](CC(C)C)[C@@H](O)CC(=O)N[C@@H](C)C(=O)N[C@@H](CC(C)C)[C@@H](O)CC(=O)O)C(C)C)C(C)C` [Pepstatin A] (Isovaleryl-VV[Sta]A[Sta]-OH) was 0.862; that for `COCCOC(=O)C1=C(C)NC(C)=C(C(=O)OC/C=C/c2ccccc2)C1c1cccc([N+](=O)[O-])c1` (configuration not stated) [Cilnidipine] was 0.76.
In the case of `CCOC(=O)C1=C[C@]2(CC)CCCN3CCc4c(n1c1ccccc41)[C@@H]32` [Vinpocetine], the ALDHbr worked out at 0.663.
With `NS(=O)(=O)c1cc(C(=O)O)cc(N2CCCC2)c1Oc1ccccc1` [Piretanide], the ALDHbr was 1.05.
Turning to `CN[C@@H]1[C@H](O[C@H]2[C@H](O[C@H]3[C@H](O)[C@@H](O)[C@H](N=C(N)N)[C@@H](O)[C@@H]3N=C(N)N)O[C@@H](C)[C@]2(O)C=O)O[C@@H](CO)[C@H](O)[C@H]1O` [Streptomycin sulfate], the ALDHbr was 1.37.
Same read-out and setting: then `CN1CCC(=C2c3ccccc3CCc3sccc32)CC1` [Pizotifen malate], with 0.619; and `Cc1cc(-n2c(=O)[nH]c(=O)n(C)c2=O)ccc1Oc1ccc(SC(F)(F)F)cc1` [Toltrazuril], with 1.09; and `NCCCC(O)(P(=O)(O)O)P(=O)(O)O` [Alendronate sodium], with 1.34.
Turning to `C#C[C@]1(OC(C)=O)CC[C@H]2[C@@H]3CCC4=CC(=NO)CC[C@@H]4[C@H]3CC[C@@]21CC` (mixture of isomers) [Norgestimate], the ALDHbr worked out at 0.798.
Turning to `CC(CN(C)C)C(C)(O)Cc1ccc(Cl)cc1` (configuration not stated) [Clobutinol hydrochloride], the ALDHbr came to 0.913.
Same read-out and setting: the value for `CCC(=O)O[C@]1(C(=O)CCl)[C@@H](C)C[C@H]2[C@@H]3CCC4=CC(=O)C=C[C@]4(C)[C@@]3(F)[C@@H](O)C[C@@]21C` [Clobetasol propionate] was 1.23; that for `CN1CCC(=C2c3ccccc3C=Cc3ccccc32)CC1` [Cyproheptadine hydrochloride] was 0.643; that for `C[C@@H](CN1CC(=O)NC(=O)C1)N1CC(=O)NC(=O)C1` [Dexrazoxane hydrochloride] was 1.36.
For the molecule `CC1COc2c(N3CCN(C)CC3)c(F)cc3c(=O)c(C(=O)O)cn1c23` (configuration not stated) [Ofloxacin], the ALDHbr was determined as 0.929.
